The other results are listed elsewhere or left out. The energies were worked out here from pooled read counts, against the library average; single values are noisy.
Biological target: T1, Pho4 (S. cerevisiae) (UniProt P07270)
T1 sequence: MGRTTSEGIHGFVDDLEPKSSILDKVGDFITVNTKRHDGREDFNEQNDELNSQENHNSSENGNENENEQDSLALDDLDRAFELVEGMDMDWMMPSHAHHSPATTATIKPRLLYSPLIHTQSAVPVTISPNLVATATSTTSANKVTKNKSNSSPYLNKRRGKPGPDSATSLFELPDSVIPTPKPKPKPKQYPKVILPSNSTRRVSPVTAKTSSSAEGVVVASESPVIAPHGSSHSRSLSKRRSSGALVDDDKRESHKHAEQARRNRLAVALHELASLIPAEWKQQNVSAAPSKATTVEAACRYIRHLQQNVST
Assay: relative binding free energy (BET-seq); higher = weaker binding
Details: reference: library average

| Sequence | relative binding free energy |
| --- | --- |
| AGAGTCACGTGAGTGT | 0.795 kJ/mol |
| GTTAGCACGTGTTCTG | -0.0418 kJ/mol |
| AGCGACACGTGTAGGG | 0.293 kJ/mol |
| GCAGGCACGTGAGAGG | 0.753 kJ/mol |
| ATGTCCACGTGTGCGT | -0.418 kJ/mol |
| ATTTACACGTGTTAAG | 0.335 kJ/mol |
| TTAGTCACGTGGTGGA | 0.0418 kJ/mol |
| GGTGACACGTGGTGAG | 0.0418 kJ/mol |
| CGCGTCACGTGTATGG | 0 kJ/mol |
| CGGAACACGTGTTGGG | -0.418 kJ/mol |
| TGAGACACGTGGGATG | -0.418 kJ/mol |
| ATAATCACGTGTTATG | 0.167 kJ/mol |
| GAGGGCACGTGCTGTG | -0.251 kJ/mol |
| TGAAGCACGTGGTACG | -0.418 kJ/mol |
| AATTACACGTGTGCTT | 0.209 kJ/mol |
| CTGGGCACGTGTTAGA | -0.544 kJ/mol |
| GCTGCCACGTGGAGGG | -0.209 kJ/mol |
| ATAGTCACGTGCAGGT | 0.628 kJ/mol |
| AAGGGCACGTGATTAT | 0.167 kJ/mol |
| GATTGCACGTGTGTCG | 0.586 kJ/mol |
| TTGGACACGTGAAGGT | 1.09 kJ/mol |
| GGCGTCACGTGGGTAT | -0.251 kJ/mol |
| TTTAACACGTGCCGGG | -0.209 kJ/mol |
| TGCAGCACGTGTGAGT | 0.0418 kJ/mol |
| TCGATCACGTGTGGCG | 1.55 kJ/mol |

| Sequence | relative binding free energy |
| --- | --- |
| CCTTTCACGTGATTTT | 1.63 kJ/mol |
| TGTCGCACGTGGGGTG | -1.26 kJ/mol |
| GTGTTCACGTGACTTT | 1.42 kJ/mol |
| TTCAGCACGTGCTGGT | -0.126 kJ/mol |
| TTGTGCACGTGTCATT | -0.46 kJ/mol |
| TTATGCACGTGTGAGT | -0.335 kJ/mol |
| TCACTCACGTGTAGTT | 1.17 kJ/mol |
| TATAGCACGTGTATGA | -0.167 kJ/mol |
| TGTGCCACGTGACGGT | -0.209 kJ/mol |
| GTGTGCACGTGGAACG | 0.628 kJ/mol |
| ATCGGCACGTGGTGTA | -0.628 kJ/mol |
| GGCCTCACGTGTGGTG | 0.669 kJ/mol |
| TGGTGCACGTGTCTTT | -0.418 kJ/mol |
| GGGTTCACGTGTGTAA | 1.42 kJ/mol |
| GTTAACACGTGAAGGG | 1.67 kJ/mol |
| GGAGTCACGTGTCGTG | 0.837 kJ/mol |
| TTCAACACGTGGGGGT | -0.377 kJ/mol |
| TTAATCACGTGGCTTG | -0.0837 kJ/mol |
| TGGTGCACGTGGAGCA | 0.293 kJ/mol |
| TTGAGCACGTGCTGGA | -0.837 kJ/mol |
| AAATTCACGTGAATTT | 2.05 kJ/mol |
| GTGGTCACGTGCTAGA | 0.335 kJ/mol |
| TATCTCACGTGGGAAT | 1.13 kJ/mol |
| AATCTCACGTGGTTTG | 0.586 kJ/mol |
| TCTGTCACGTGTCTGT | 0.293 kJ/mol |

| Sequence | relative binding free energy |
| --- | --- |
| ATTTTCACGTGTCGAG | 0.711 kJ/mol |
| TGAGGCACGTGGCATA | -1.21 kJ/mol |
| GTTTACACGTGGTAGC | 0.418 kJ/mol |
| TATTGCACGTGACGTG | -0.0418 kJ/mol |
| GCGTCCACGTGGGGAG | 0.293 kJ/mol |
| GGTGACACGTGGGTCA | -0.502 kJ/mol |
| AGGTACACGTGGGAAT | -0.126 kJ/mol |
| TGGGTCACGTGTGAGC | 1.26 kJ/mol |
| ATTTTCACGTGTTGAC | 1.42 kJ/mol |
| GGGGTCACGTGTCTCG | 0.628 kJ/mol |
| CATTACACGTGCGGGG | 0.377 kJ/mol |
| TGTACCACGTGTGTTG | -0.126 kJ/mol |
| AGGTTCACGTGTGTCG | 1.17 kJ/mol |
| ATTATCACGTGAAGGG | 0.837 kJ/mol |
| CGTGACACGTGTAATT | 0.377 kJ/mol |
| AATGGCACGTGGGAGA | -0.502 kJ/mol |
| CCGGGCACGTGGGGTC | -0.711 kJ/mol |
| CGGGTCACGTGTTATA | 0.669 kJ/mol |
| AGAGGCACGTGGGTGT | -0.837 kJ/mol |
| TATTTCACGTGAAGAA | 1.42 kJ/mol |
| ATACGCACGTGTTGTA | -0.92 kJ/mol |
| ATTGGCACGTGTGATA | 0.209 kJ/mol |
| CATAGCACGTGTTTTA | 0.126 kJ/mol |
| TCTTTCACGTGAATTG | 1.09 kJ/mol |
| CTGTACACGTGGCGTT | 0 kJ/mol |

| Sequence | relative binding free energy |
| --- | --- |
| TACAGCACGTGGGTGT | -0.795 kJ/mol |
| GCTGACACGTGTGGGG | 0.0418 kJ/mol |
| GATGACACGTGGGTGT | -0.502 kJ/mol |
| TGAGTCACGTGGGTCT | -0.0418 kJ/mol |
| GTGCGCACGTGGGGCC | -1.05 kJ/mol |
| TTTGGCACGTGATACG | 0.167 kJ/mol |
| GGTGACACGTGTTGGG | 0.377 kJ/mol |
| AGGATCACGTGGGTTA | 0.628 kJ/mol |
| TGAAACACGTGTGTGA | 0.251 kJ/mol |
| TTGGTCACGTGGAGTC | 0.962 kJ/mol |
| CAAGGCACGTGGGAGG | -0.669 kJ/mol |
| GGGTTCACGTGGTTCC | 1.05 kJ/mol |
| TCTCGCACGTGTGTGG | -0.293 kJ/mol |
| AAGGGCACGTGTTCGT | -1.05 kJ/mol |
| AATTACACGTGGAAAT | 1.63 kJ/mol |
| ACCGTCACGTGTGTGT | 0.544 kJ/mol |
| AGTTGCACGTGTACTT | 0.126 kJ/mol |
| GTCGGCACGTGTGCTG | -0.126 kJ/mol |
| CTTTGCACGTGTTTGG | -0.126 kJ/mol |
| CGAGGCACGTGTGTTC | 0.335 kJ/mol |
| TTGTCCACGTGGGAGG | -0.335 kJ/mol |
| ATTGCCACGTGAGGGA | 0.46 kJ/mol |
| CTTAGCACGTGGTTTG | -0.46 kJ/mol |
| TTAAGCACGTGGGATG | -0.837 kJ/mol |
| TGTTTCACGTGGAGCG | 1.17 kJ/mol |

| Sequence | relative binding free energy |
| --- | --- |
| TATGTCACGTGCGGTG | 0.46 kJ/mol |
| CAGTGCACGTGCGGTG | -0.293 kJ/mol |
| TATGTCACGTGGTGAC | -0.0418 kJ/mol |
| TTATGCACGTGTAGTC | 0.0837 kJ/mol |
| ATTGACACGTGTGACT | 0.418 kJ/mol |
| GGAGTCACGTGCGATT | 0.879 kJ/mol |
| GGGGTCACGTGAGCGT | 0.962 kJ/mol |
| CTTATCACGTGTTATG | 0.418 kJ/mol |
| ATGGTCACGTGTATTG | -0.0418 kJ/mol |
| TTTTTCACGTGTCATT | 1.13 kJ/mol |
| TTTGTCACGTGGTAAC | -0.0418 kJ/mol |
| TCGAGCACGTGTGATG | -0.209 kJ/mol |
| TGGCTCACGTGGTAGA | 1.17 kJ/mol |
| TAAAGCACGTGATTGT | -0.126 kJ/mol |
| AATGACACGTGTAGGG | 0 kJ/mol |
| ATGGTCACGTGTAACG | 0.418 kJ/mol |
| CGATGCACGTGGGTTC | 0.0418 kJ/mol |
| GCGGGCACGTGGGGTA | -0.837 kJ/mol |
| AAACTCACGTGTGTGG | 1.21 kJ/mol |
| TGGCGCACGTGGCAAG | -0.46 kJ/mol |
| GTGAGCACGTGGCTGT | -0.502 kJ/mol |
| ATAGTCACGTGTTAAA | 0.46 kJ/mol |
| GCTTACACGTGGAGTT | 0.753 kJ/mol |
| GGAATCACGTGTTGTT | 0.837 kJ/mol |
| TCGTGCACGTGGTGTT | -0.628 kJ/mol |

| Sequence | relative binding free energy |
| --- | --- |
| GGATGCACGTGTTCAG | 0 kJ/mol |
| ACAATCACGTGGGGTG | -0.377 kJ/mol |
| TTATTCACGTGCCGGG | 0.962 kJ/mol |
| CTTTACACGTGCTTTT | -0.0837 kJ/mol |
| GGGTGCACGTGCCTTG | -0.377 kJ/mol |
| AATAGCACGTGGAGGT | -0.669 kJ/mol |
| TTCATCACGTGCGTTT | 0.879 kJ/mol |
| TAGAGCACGTGTGGGC | -0.544 kJ/mol |
| TTATGCACGTGTCGCT | 0.0418 kJ/mol |
| GGTAACACGTGGTAAG | -0.167 kJ/mol |
| AATTTCACGTGAAAAT | 1.67 kJ/mol |
| ATGCGCACGTGCGTGG | -1 kJ/mol |
| TATTTCACGTGCTGCG | 0.92 kJ/mol |
| TGGTACACGTGTATTC | 0.126 kJ/mol |
| GGGCTCACGTGTCGTG | 1.13 kJ/mol |
| CGAGACACGTGGAGTG | 0.0837 kJ/mol |
| TGAGTCACGTGTTTAA | 0.418 kJ/mol |
| CGTGTCACGTGGTTCG | -0.502 kJ/mol |
| TGTGACACGTGTCGGG | -0.0837 kJ/mol |
| GTGGTCACGTGCGAGC | 1.17 kJ/mol |
| TATTGCACGTGTAGGA | -0.0418 kJ/mol |

— the BET-seq Pho4 binding data (Le et al. 2018)
